Assay results taken from paper PMC4336329 (PLoS ONE, 2015).
Hit rate of the full screen: of about 310,000 compounds, about 2,200 (0.71%) showed an effect of 50% or more. The effect is printed as a negative number. The list shows a part of the results.

Target: human ether-à-go-go-related gene (hERG) potassium channel (human, UniProt Q12809)
Assay: primary screen, population patch clamp on CHO cells stably expressing hERG

human ether-à-go-go-related gene (hERG) potassium channel, sequence (Q12809 whole entry, looked up): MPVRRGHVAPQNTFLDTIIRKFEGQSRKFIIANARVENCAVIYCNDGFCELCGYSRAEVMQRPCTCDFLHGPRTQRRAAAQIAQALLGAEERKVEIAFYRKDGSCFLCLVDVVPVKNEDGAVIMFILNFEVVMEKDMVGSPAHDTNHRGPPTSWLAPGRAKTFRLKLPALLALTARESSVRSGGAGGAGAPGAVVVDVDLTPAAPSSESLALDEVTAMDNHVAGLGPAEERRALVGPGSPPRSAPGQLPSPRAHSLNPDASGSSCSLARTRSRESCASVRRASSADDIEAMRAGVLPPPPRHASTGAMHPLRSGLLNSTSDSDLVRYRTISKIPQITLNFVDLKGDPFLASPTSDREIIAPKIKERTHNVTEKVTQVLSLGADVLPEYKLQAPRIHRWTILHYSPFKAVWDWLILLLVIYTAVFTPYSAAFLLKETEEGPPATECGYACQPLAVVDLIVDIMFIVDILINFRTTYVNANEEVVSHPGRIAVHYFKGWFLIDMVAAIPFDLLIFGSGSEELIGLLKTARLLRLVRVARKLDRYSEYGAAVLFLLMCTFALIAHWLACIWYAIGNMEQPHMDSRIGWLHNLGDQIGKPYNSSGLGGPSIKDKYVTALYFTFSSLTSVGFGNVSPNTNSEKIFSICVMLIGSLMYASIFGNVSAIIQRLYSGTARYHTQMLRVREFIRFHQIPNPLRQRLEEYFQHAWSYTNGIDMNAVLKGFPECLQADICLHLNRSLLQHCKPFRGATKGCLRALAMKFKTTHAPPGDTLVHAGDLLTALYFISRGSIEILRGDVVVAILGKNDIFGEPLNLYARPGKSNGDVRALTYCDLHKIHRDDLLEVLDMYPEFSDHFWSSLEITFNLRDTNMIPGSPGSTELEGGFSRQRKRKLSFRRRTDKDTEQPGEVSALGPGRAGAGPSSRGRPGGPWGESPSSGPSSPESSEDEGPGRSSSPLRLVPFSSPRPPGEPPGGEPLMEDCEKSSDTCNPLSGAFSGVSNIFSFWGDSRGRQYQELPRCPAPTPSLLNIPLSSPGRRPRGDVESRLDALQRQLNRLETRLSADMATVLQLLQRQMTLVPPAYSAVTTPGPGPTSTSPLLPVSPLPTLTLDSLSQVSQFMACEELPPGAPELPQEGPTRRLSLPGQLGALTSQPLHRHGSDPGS

SMILES | hERG current change (%, negative = inhibition) at 1uM [%]
CCCN(Cc1nnc(-c2cccs2)o1)C(=O)CN1C(=O)NC2(CCCCC2C)C1=O (stereo not drawn) | -3.04
COc1ccc(CNC(=O)COc2ccc(S(=O)(=O)N3CCOCC3)cc2)cc1 | 2.05
O=C(N1CCCC1)C(F)(F)Oc1ccc(F)cc1 | 5.88
CCOc1ccc2ccccc2c1CNc1nnnn1C | 6.18
CCC(CC)c1nnc(NC(=O)c2ccc3c(c2)OCO3)s1 | 2.22
CCCC12CN3CCN(C1)CC(CCC)(C3)C2=O | 13.7
Cc1c(C(=O)N2CCC3(CC2)OCCO3)sc2ncnc(N3CCN(c4ccccn4)CC3)c12 | -8.3
Cc1ccc(OCc2n[nH]c(=S)n2-c2ccccc2)cc1 | 12.1
CCOC(=O)/C(N=O)=C(\O)C1CCN(C(=O)OCC)CC1 | 11.2
CCN1CCN(c2ccc(S(=O)(=O)N3CCOCC3)cc2NC(=O)/C=C/c2cccc(OC)c2OC)CC1 | 12.7
CCOc1ccccc1-c1nc(-c2cc3ccccc3nc2OC)no1 | 4.97
O=C(NCc1ccncc1)c1cnccn1 | 11.5
O=S(=O)(c1cccc(S(=O)(=O)N2CCC(Cc3ccccc3)CC2)c1)N1CCOCC1 | 7.64
CCOc1ccccc1C(=O)NCC(=O)OCC(=O)NCCc1ccc(S(N)(=O)=O)cc1 | 15.9
CCCN1CCN(CCCNC(=S)Nc2ccc(OC)cc2)CC1 | 7.04
COc1ccc(N2CCN(C(=O)c3ccc4c(=O)n(CC5CCCO5)c(=O)[nH]c4c3)CC2)cc1 (stereo not drawn) | 15.4
CSc1ccccc1C(=O)N1CCN(c2ncccn2)CC1 | 9.78
CCCn1c(CN(C)Cc2ccccc2)nc2c1c(=O)n(C)c(=O)n2C | 4.79
CCOC(=O)CNC(=O)CSc1nc(-c2ccc(OC)cc2)ns1 | 2.37
Cl.NC1CCN(c2cccc(Cl)n2)CC1 | 1.81
Oc1ccc(C[C@@H]2CNCCN2CCc2cccc(F)c2)cc1 | 2.13
Cc1cc2c([nH]c3ccccc32)c(C)[nH+]1.[Cl-] | 3.43
CC1=C(C(=O)Nc2ccccc2C(=O)N2CCC(C)CC2)SCCO1 | 7.58
COCCNc1nnc(SCC(=O)Nc2cc(C)on2)s1 | 8.08

SMILES | hERG current change (%, negative = inhibition) at 1uM [%]
Cc1cc(Oc2ncccc2[N+](=O)[O-])c2cc(Cl)ccc2n1 | 1.95
Cc1ccc(CN2C(=O)C(=O)N(CC(N)=O)C2=O)cc1 | 13.5
O=C(Nc1ccc2c(c1)OCO2)C1CC(=O)N(c2ccc3c(c2)OCCO3)C1 (stereo not drawn) | 9.95
O=C(CSC1=NCCS1)c1ccc(Cl)cc1 | 9.33
CSc1ccc(Cl)c(C(=O)OCC(=O)N2CCN(C(=O)c3ccco3)CC2)c1 | -3.76
CCN(Cc1ccncc1)C(=S)NCc1ccccc1 | 1.83
O=C(N/C(=C\c1ccc([N+](=O)[O-])cc1)C(=O)N1CCOCC1)c1ccco1 | -57.1
O=C(CSc1nnc2c(Cl)cc(Cl)cn12)N1CCOCC1 | 1.14
CC1=C2C(=O)C3C(CC=C4CC(OC5OC(O)C(O)C(O)C5CO)CCC43C)C2CCC12OC1CC(C)CNC1C2C (stereo not drawn) | -2.14
CCOC(=O)C(C(=O)N(C)C)c1ncc(C(F)(F)F)cc1Cl (stereo not drawn) | 14.7
CCCc1cc(Nc2ccccc2C)n2ncnc2n1 | 9.22
COC(=O)c1cccc(N(C(=O)c2cnccn2)C(C(=O)NCc2ccccc2)c2ccco2)c1 (stereo not drawn) | 14.1
CCCCNC(=O)COC(=O)CCC(=O)c1ccc(Cl)cc1 | 13.1
Cc1ccc(NC(=O)C[n+]2ccccc2)cc1C.[Cl-] | 9.17
Cc1ccccc1Nc1c(-c2ccccn2)nc2ccccn12 | 10.7
Fc1ccc(NC(=S)Nc2cccnc2)c(Cl)c1 | 7.06
Cc1ccc(-n2c(C)nc3ccccc3c2=O)cc1C | -40.6
Cn1ncc(Br)c1NC(=O)Nc1ccc(OC(F)(F)F)cc1 | 10.8
O=C(COc1ccccc1/C=C1\SC(=O)NC1=O)Nc1ccc(F)cc1 | 3.48
O=C(N/N=C/c1cccc(Oc2ccccc2)c1)c1ccncc1 | 11
Cc1cc(Cl)ccc1Oc1ncc(CN2CCN(c3ccccc3)CC2)s1 | 7.93
Cc1cccc(Nc2ccccc2)c1 | -4.07
CCOC(=O)c1cnc2c(cnn2C)c1NCc1ccc(OC)cc1 | 12.1
COc1ccccc1N1CCN(C2CCCN(C(=O)c3oc(C)cc3C)C2)CC1 (stereo not drawn) | -7.67

SMILES | hERG current change (%, negative = inhibition) at 1uM [%]
O=C(Nc1cccnc1)c1c(F)cccc1F | 14.3
COc1cc(OC)cc(-c2oc(=O)c3cc(OC)c(OC)cc3c2/C=C/c2ccc(F)cc2)c1 | 1.62
CCCn1c(SCC(=O)N2CCCC2)nc2c1c(=O)n(C)c(=O)n2C | -9.97
CN1CCN(/N=C/c2ccc(N(c3ccccc3)c3ccccc3)cc2)CC1.Cl | 10.3
Cn1c(O)c(C=NC2CC(C)(C)NC(C)(C)C2)c(=O)n(C)c1=O | 6.98
CCSc1nc2nn(-c3ccccc3)c(=O)c-2c2n1CCCCC2 | 6.48
CC(C)(C)NC(=O)c1cc([N+](=O)[O-])ccc1N1CCCCC1 | 11.8
O=C(c1noc2c1CCCC2)N1CCN(c2ccc(F)cc2)CC1 | 20
COc1cc(N)ccc1NC(=O)c1cccs1 | -2.4
Cn1c(=NC(=O)COc2ccccc2)sc2ccccc21 | 7.4
Nc1ccccc1SCc1c(Cl)cccc1Cl | 4.76
Cc1ccc(NC(=O)c2ccc3c(c2)OCCO3)cc1 | 16.8
Nc1ncc(Br)cc1S(=O)(=O)NCCC(=O)NCCc1ccccc1 | 9.8
O=C(Cc1ccccc1)NNC(=S)Nc1ccccc1 | 10.2
COC(=O)c1cc(-c2ccc(S(=O)(=O)N3CCCC3)cc2)c(C(F)(F)F)s1 | 15.8
Cc1ccc(-c2ccc(=O)n(CC(=O)NCCN(CC(C)C)CC(C)C)n2)cc1 | 12.1
CCOC(=O)c1ccc(NC(=O)C2CCCN(S(=O)(=O)c3cnc[nH]3)C2)cc1 (stereo not drawn) | 9.7
Cc1nc2ccc([N+](=O)[O-])cc2nc1C | 0.886
CCOC(=O)c1nc(S(C)(=O)=O)ncc1N1CCOCC1 | 12.1
Cc1ccc(C)c(SCC(=O)c2ccc[nH]2)c1 | 8.5
COc1cc(C=O)ccc1OCc1ccccc1Br | 5.93
CCOc1cc(NS(C)(=O)=O)c(OCC)cc1NC(=O)c1cccs1 | 5.57
CC(=O)C1C(c2ccc(Cl)cc2)c2c(noc2C)CC1(C)O (stereo not drawn) | 12.7
COc1ccc(Cl)cc1C(=O)OCC(=O)NC(=O)c1cccn1C | -3.66

SMILES | hERG current change (%, negative = inhibition) at 1uM [%]
COC(=O)c1ccc(/C=N\NC(=O)CC(=O)NCCc2ccccc2)cc1 | 10.6
O=C(ONc1ccc(N=NC(=O)c2ccccc2O)cc1)c1ccccc1 | 12.8
NNC(=O)c1[nH]c2ccc([N+](=O)[O-])cc2c1-c1ccccc1 | 14.6
Cc1cccc(OCCNC(=O)c2cncc(Br)c2)c1 | 6.79
COc1ccc(Nc2nnc(SCC(=O)NC3CC3)s2)cc1 | 11.5
NS(=O)(=O)c1ccc(NC(=O)COC(=O)C2(c3ccc(F)cc3)CCCC2)cc1 | 7.18
Cc1ccc(-c2nn(-c3ccccc3)cc2C2SCC(=O)N2Cc2ccccc2)o1 (stereo not drawn) | 13.1
CCN1CCN(C(=O)c2nn(-c3ccccc3)c(=O)c3ccccc23)CC1 | 5.91
O=C(c1ccco1)N1CCN(C(c2cccs2)c2nnnn2C2CCCCC2)CC1 (stereo not drawn) | -5.75
CC(NC(=O)CCC(=O)N1CCCCCC1)c1ccccc1 (stereo not drawn) | 16.8
Cc1c2cnn(CC(=O)N3CCOCC3)c(=O)c2c(C)n1Cc1ccccc1F | 9.92
CC(=O)Nc1ccc(NC(=O)COC(=O)c2n[nH]c3ccccc23)cc1 | 3.81
O=C(O)CCNS(=O)(=O)c1ccc2c(c1)CCCC2 | 4.03
Cc1cc(Cl)ccc1OCC(=O)Nc1cccc(S(=O)(=O)N2CCCC2)c1 | 3.55
NC(=O)c1ccsc1NC(=O)c1ccco1 | 1.36
Cc1nc2ccc(NC(=O)N3CCN(c4ccccn4)CC3)cc2s1 | 7.75
COC(=O)c1ccc2ccn(CC(=O)NC3CCCCC3)c2c1 | 1.65
O=C(O)c1cc(Cl)ccc1-c1ccc(/C=C/c2cc(C(F)(F)F)[nH]c(=O)n2)o1 | 7.85
CCC(=O)N(Cc1cc(=O)[nH]c2ccccc12)c1ccccc1OC | 12.3
CCN1CCN(c2nc(-c3ccccc3Cl)nc3ccccc23)CC1.Cl | -39.1
CSc1ccc(CN(C)Cc2cc(=O)oc3c(C)c(C)ccc23)cc1 | 5.44
